Measurements as given in the supplement of paper PMC10369915.
The other results are listed elsewhere or left out. No stated cut-off is given here; in the data, active = 3.2 or more and inactive = the rest. Most of these values are background signal.

How the values were obtained:
Experiment in all cases: enrichment score (SH2-bound / input frequency) (ratio); bacterial display of known human phosphotyrosine sites (pTyr-Var adds point mutants) read by sequencing; higher = stronger binding; tyrosines were phosphorylated by kinases first
Conditions in all cases: peptide library: pTyr-Var
SHP2 C-SH2 domain E139D = biological target: SHP2 C-SH2 domain E139D
[1] = biological target: SHP2 C-SH2 domain wild-type
SHP2 N-SH2 domain L43F = biological target: SHP2 N-SH2 domain L43F
SHP2 N-SH2 domain T42A = biological target: SHP2 N-SH2 domain T42A
SHP2 N-SH2 domain T52S = biological target: SHP2 N-SH2 domain T52S
[2] = biological target: SHP2 N-SH2 domain wild-type

Measured: enrichment score
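Further: displayed peptides selected on beads carrying the immobilized SH2 domain, with library peptides lacking any tyrosine serving as negative controls.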

B1: APOA1_Y53 (peptide)
chain: DSGRDYVSQFE
inactive: SHP2 C-SH2 domain E139D 0.55 | [1] 0.577 | SHP2 N-SH2 domain L43F 0.515 | SHP2 N-SH2 domain T42A 0.599 | SHP2 N-SH2 domain T52S 0.577 | [2] 0.62

B2: APC_Y96 (peptide)
chain: MSLRSYGSREG
inactive: SHP2 C-SH2 domain E139D 0.556 | [1] 0.536 | SHP2 N-SH2 domain L43F 0.467 | SHP2 N-SH2 domain T42A 0.463 | SHP2 N-SH2 domain T52S 0.468 | [2] 0.465

B3: APOA4_Y310_R305C (peptide)
chain: CRVEPYGENFN
inactive: SHP2 C-SH2 domain E139D 0.863 | [1] 1.04 | SHP2 N-SH2 domain L43F 0.735 | SHP2 N-SH2 domain T42A 0.547 | SHP2 N-SH2 domain T52S 0.922 | [2] 1.36

B4: ANXA1_Y335_G333E (peptide)
chain: ETKEDYEKILV
inactive: SHP2 C-SH2 domain E139D 0.577 | [1] 0.971 | SHP2 N-SH2 domain L43F 0.677 | SHP2 N-SH2 domain T42A 0.582 | SHP2 N-SH2 domain T52S 0.573 | [2] 0.738

B5: ANXA3_Y295 (peptide)
chain: EFKKHYGYSLY
active: SHP2 C-SH2 domain E139D 3.65 | [1] 3.35
inactive: SHP2 N-SH2 domain L43F 3.01 | SHP2 N-SH2 domain T42A 2.25 | SHP2 N-SH2 domain T52S 2.47 | [2] 2.81

B6: APOA1_Y190_P189R (peptide)
chain: THLARYSDELR
inactive: SHP2 C-SH2 domain E139D 0.611 | [1] 0.721 | SHP2 N-SH2 domain L43F 0.734 | SHP2 N-SH2 domain T42A 0.585 | SHP2 N-SH2 domain T52S 0.799 | [2] 0.689

B7: AP1S3_Y87_I83T (peptide)
chain: ETVHRYVELLD
inactive: SHP2 C-SH2 domain E139D 0.93 | [1] 1.57 | SHP2 N-SH2 domain L43F 2.13 | SHP2 N-SH2 domain T52S 2.3 | [2] 0.967
active: SHP2 N-SH2 domain T42A 4.38

B8: AR_Y269 (peptide)
chain: RGDCMYAPLLG
inactive: SHP2 C-SH2 domain E139D 1.07 | [1] 0.923 | SHP2 N-SH2 domain L43F 1.02 | SHP2 N-SH2 domain T42A 0.902 | SHP2 N-SH2 domain T52S 0.997 | [2] 0.938

B9: APBA1_Y183 (peptide)
chain: GEDEPYSEPYA
inactive: SHP2 C-SH2 domain E139D 0.513 | [1] 0.426 | SHP2 N-SH2 domain L43F 0.399 | SHP2 N-SH2 domain T42A 0.459 | SHP2 N-SH2 domain T52S 0.311 | [2] 0.501

B10: APTX_Y209_K211Q_YF (peptide)
chain: VIKDKYPQARF
inactive: SHP2 C-SH2 domain E139D 0.867 | [1] 0.709 | SHP2 N-SH2 domain L43F 0.899 | SHP2 N-SH2 domain T42A 0.754 | SHP2 N-SH2 domain T52S 0.673 | [2] 0.912

B11: ANTXR2_Y381 (peptide)
chain: VDASYYGGRGV
inactive: SHP2 C-SH2 domain E139D 0.651 | [1] 0.596 | SHP2 N-SH2 domain L43F 0.509 | SHP2 N-SH2 domain T42A 0.533 | SHP2 N-SH2 domain T52S 0.579 | [2] 0.657

B12: APTX_Y209_K211Q (peptide)
chain: VIKDKYPQARY
inactive: SHP2 C-SH2 domain E139D 0.841 | [1] 0.944 | SHP2 N-SH2 domain L43F 0.664 | SHP2 N-SH2 domain T42A 0.627 | SHP2 N-SH2 domain T52S 0.852 | [2] 0.885

B13: AR_Y269_P271S (peptide)
chain: RGDCMYASLLG
inactive: SHP2 C-SH2 domain E139D 1.3 | [1] 1.73 | SHP2 N-SH2 domain L43F 0.931 | SHP2 N-SH2 domain T42A 1.37 | SHP2 N-SH2 domain T52S 1.07 | [2] 1.12

B14: API5_Y497 (peptide)
chain: LGNFNYEQRGA
inactive: SHP2 C-SH2 domain E139D 0.668 | [1] 0.527 | SHP2 N-SH2 domain L43F 0.545 | SHP2 N-SH2 domain T42A 0.49 | SHP2 N-SH2 domain T52S 0.518 | [2] 0.612

B15: APOB_Y276_K273N (peptide)
chain: SYNNKYGMVAQ
inactive: SHP2 C-SH2 domain E139D 0.775 | [1] 0.69 | SHP2 N-SH2 domain L43F 0.696 | SHP2 N-SH2 domain T42A 0.456 | SHP2 N-SH2 domain T52S 0.626 | [2] 0.537

B16: AP1S3_Y87 (peptide)
chain: EIVHRYVELLD
active: SHP2 N-SH2 domain T42A 4.5
inactive: SHP2 C-SH2 domain E139D 1.26 | [1] 1.28 | SHP2 N-SH2 domain L43F 2.34 | SHP2 N-SH2 domain T52S 2.35 | [2] 1.21

B17: APTX_Y214_K211Q_YF (peptide)
chain: FPQARYHWLVL
inactive: SHP2 C-SH2 domain E139D 2.89 | [1] 2.74 | SHP2 N-SH2 domain L43F 2.65 | SHP2 N-SH2 domain T42A 2.47 | SHP2 N-SH2 domain T52S 2.77 | [2] 2.96

B18: APC_Y1183_A1184P_YF (peptide)
chain: DFSLKYPTDIP
inactive: SHP2 C-SH2 domain E139D 1.07 | [1] 0.835 | SHP2 N-SH2 domain L43F 1.03 | SHP2 N-SH2 domain T42A 0.924 | SHP2 N-SH2 domain T52S 1.08 | [2] 1.05

B19: API5_Y497_G493S (peptide)
chain: LSNFNYEQRGA
inactive: SHP2 C-SH2 domain E139D 0.753 | [1] 0.575 | SHP2 N-SH2 domain L43F 0.554 | SHP2 N-SH2 domain T42A 0.674 | SHP2 N-SH2 domain T52S 0.497 | [2] 0.546

B20: AR_Y395 (peptide)
chain: ENPLDYGSAWA
inactive: SHP2 C-SH2 domain E139D 0.705 | [1] 0.809 | SHP2 N-SH2 domain L43F 0.875 | SHP2 N-SH2 domain T42A 0.795 | SHP2 N-SH2 domain T52S 0.938 | [2] 0.804

B21: ANTXR2_Y380_YF (peptide)
chain: TVDASYFGGRG
inactive: SHP2 C-SH2 domain E139D 0.766 | [1] 0.66 | SHP2 N-SH2 domain L43F 0.764 | SHP2 N-SH2 domain T42A 0.62 | SHP2 N-SH2 domain T52S 0.767 | [2] 0.84

B22: APBA1_Y187_S184A (peptide)
chain: PYAEPYADYGG
inactive: SHP2 C-SH2 domain E139D 0.761 | [1] 0.581 | SHP2 N-SH2 domain L43F 0.679 | SHP2 N-SH2 domain T42A 0.644 | SHP2 N-SH2 domain T52S 0.657 | [2] 0.719

B23: ANTXR2_Y380_Y381C (peptide)
chain: TVDASYCGGRG
inactive: SHP2 C-SH2 domain E139D 0.66 | [1] 0.621 | SHP2 N-SH2 domain L43F 0.828 | SHP2 N-SH2 domain T42A 0.535 | SHP2 N-SH2 domain T52S 0.574 | [2] 0.703

B24: APTX_Y209_R213H (peptide)
chain: VIKDKYPKAHY
inactive: SHP2 C-SH2 domain E139D 1.14 | [1] 1.22 | SHP2 N-SH2 domain L43F 1.15 | SHP2 N-SH2 domain T42A 1.04 | SHP2 N-SH2 domain T52S 1.19 | [2] 1.11

B25: APC_Y2838 (peptide)
chain: RHSGSYLVTSV
inactive: SHP2 C-SH2 domain E139D 1.26 | [1] 1.04 | SHP2 N-SH2 domain L43F 0.941 | SHP2 N-SH2 domain T42A 0.951 | SHP2 N-SH2 domain T52S 1.15 | [2] 1.04

B26: APTX_Y214_H215R_YF (peptide)
chain: FPKARYRWLVL
inactive: SHP2 C-SH2 domain E139D 0.448 | [1] 0.484 | SHP2 N-SH2 domain L43F 0.452 | SHP2 N-SH2 domain T42A 0.391 | SHP2 N-SH2 domain T52S 0.467 | [2] 0.414

B27: APBA1_Y187 (peptide)
chain: PYSEPYADYGG
inactive: SHP2 C-SH2 domain E139D 0.777 | [1] 0.433 | SHP2 N-SH2 domain L43F 0.592 | SHP2 N-SH2 domain T42A 0.537 | SHP2 N-SH2 domain T52S 0.399 | [2] 0.379

B28: APOB_Y740_T741N (peptide)
chain: VDHFGYNKDDK
inactive: SHP2 C-SH2 domain E139D 0.724 | [1] 0.574 | SHP2 N-SH2 domain L43F 0.746 | SHP2 N-SH2 domain T42A 0.674 | SHP2 N-SH2 domain T52S 0.502 | [2] 0.828

B29: APBA1_Y183_S184A (peptide)
chain: GEDEPYAEPYA
inactive: SHP2 C-SH2 domain E139D 0.651 | [1] 0.489 | SHP2 N-SH2 domain L43F 0.312 | SHP2 N-SH2 domain T42A 0.497 | SHP2 N-SH2 domain T52S 0.372 | [2] 0.695

B30: APOA1_Y190 (peptide)
chain: THLAPYSDELR
inactive: SHP2 C-SH2 domain E139D 0.617 | [1] 0.59 | SHP2 N-SH2 domain L43F 0.819 | SHP2 N-SH2 domain T42A 0.675 | SHP2 N-SH2 domain T52S 0.672 | [2] 0.874

B31: APBB1IP_Y340 (peptide)
chain: RASGIYYVPKG
inactive: SHP2 C-SH2 domain E139D 0.974 | [1] 0.96 | SHP2 N-SH2 domain L43F 0.889 | SHP2 N-SH2 domain T42A 0.918 | SHP2 N-SH2 domain T52S 0.659 | [2] 0.631

B32: APC_Y2838_L2839F (peptide)
chain: RHSGSYFVTSV
inactive: SHP2 C-SH2 domain E139D 0.994 | [1] 0.872 | SHP2 N-SH2 domain L43F 0.824 | SHP2 N-SH2 domain T42A 0.809 | SHP2 N-SH2 domain T52S 0.756 | [2] 0.879

B33: APC_Y1183_A1184P (peptide)
chain: DYSLKYPTDIP
inactive: SHP2 C-SH2 domain E139D 0.898 | [1] 1.04 | SHP2 N-SH2 domain L43F 0.834 | SHP2 N-SH2 domain T42A 0.819 | SHP2 N-SH2 domain T52S 0.911 | [2] 0.936

B34: AR_Y395_P392S (peptide)
chain: ENSLDYGSAWA
inactive: SHP2 C-SH2 domain E139D 0.69 | [1] 0.516 | SHP2 N-SH2 domain L43F 0.655 | SHP2 N-SH2 domain T42A 0.478 | SHP2 N-SH2 domain T52S 0.624 | [2] 0.697

B35: AR_Y858_F857L (peptide)
chain: CSRRLYQLTKL
inactive: SHP2 C-SH2 domain E139D 0.451 | [1] 0.315 | SHP2 N-SH2 domain L43F 0.313 | SHP2 N-SH2 domain T42A 0.382 | SHP2 N-SH2 domain T52S 0.358 | [2] 0.34

B36: APBB1IP_Y340_R335W_YF (peptide)
chain: WASGIYFVPKG
inactive: SHP2 C-SH2 domain E139D 2.19 | [1] 1.88 | SHP2 N-SH2 domain L43F 1.76 | SHP2 N-SH2 domain T42A 1.89 | SHP2 N-SH2 domain T52S 2.15 | [2] 2.18

B37: ANTXR2_Y381_YF (peptide)
chain: VDASFYGGRGV
inactive: SHP2 C-SH2 domain E139D 0.926 | [1] 0.805 | SHP2 N-SH2 domain L43F 0.788 | SHP2 N-SH2 domain T42A 0.976 | SHP2 N-SH2 domain T52S 0.638 | [2] 0.846
